Assay results as given in publication PMC5599018.
Results are given in words; binding and its absence hold for the method and conditions named. Binding seen in cells or lysates may run through a third protein. Some binding calls cover weakened binding; strength is not graded here. Each block holds one molecule with its values, some of them ahead of it.

The chains behind the UniProt entries cited, without tags or fusion partners. Where a name states a change or a piece, a line headed by the entry shows the natural chain unless it says otherwise. A line that says so, or that is headed by a name, gives the form on record, which may keep a tag or linker.
UniProt O00443: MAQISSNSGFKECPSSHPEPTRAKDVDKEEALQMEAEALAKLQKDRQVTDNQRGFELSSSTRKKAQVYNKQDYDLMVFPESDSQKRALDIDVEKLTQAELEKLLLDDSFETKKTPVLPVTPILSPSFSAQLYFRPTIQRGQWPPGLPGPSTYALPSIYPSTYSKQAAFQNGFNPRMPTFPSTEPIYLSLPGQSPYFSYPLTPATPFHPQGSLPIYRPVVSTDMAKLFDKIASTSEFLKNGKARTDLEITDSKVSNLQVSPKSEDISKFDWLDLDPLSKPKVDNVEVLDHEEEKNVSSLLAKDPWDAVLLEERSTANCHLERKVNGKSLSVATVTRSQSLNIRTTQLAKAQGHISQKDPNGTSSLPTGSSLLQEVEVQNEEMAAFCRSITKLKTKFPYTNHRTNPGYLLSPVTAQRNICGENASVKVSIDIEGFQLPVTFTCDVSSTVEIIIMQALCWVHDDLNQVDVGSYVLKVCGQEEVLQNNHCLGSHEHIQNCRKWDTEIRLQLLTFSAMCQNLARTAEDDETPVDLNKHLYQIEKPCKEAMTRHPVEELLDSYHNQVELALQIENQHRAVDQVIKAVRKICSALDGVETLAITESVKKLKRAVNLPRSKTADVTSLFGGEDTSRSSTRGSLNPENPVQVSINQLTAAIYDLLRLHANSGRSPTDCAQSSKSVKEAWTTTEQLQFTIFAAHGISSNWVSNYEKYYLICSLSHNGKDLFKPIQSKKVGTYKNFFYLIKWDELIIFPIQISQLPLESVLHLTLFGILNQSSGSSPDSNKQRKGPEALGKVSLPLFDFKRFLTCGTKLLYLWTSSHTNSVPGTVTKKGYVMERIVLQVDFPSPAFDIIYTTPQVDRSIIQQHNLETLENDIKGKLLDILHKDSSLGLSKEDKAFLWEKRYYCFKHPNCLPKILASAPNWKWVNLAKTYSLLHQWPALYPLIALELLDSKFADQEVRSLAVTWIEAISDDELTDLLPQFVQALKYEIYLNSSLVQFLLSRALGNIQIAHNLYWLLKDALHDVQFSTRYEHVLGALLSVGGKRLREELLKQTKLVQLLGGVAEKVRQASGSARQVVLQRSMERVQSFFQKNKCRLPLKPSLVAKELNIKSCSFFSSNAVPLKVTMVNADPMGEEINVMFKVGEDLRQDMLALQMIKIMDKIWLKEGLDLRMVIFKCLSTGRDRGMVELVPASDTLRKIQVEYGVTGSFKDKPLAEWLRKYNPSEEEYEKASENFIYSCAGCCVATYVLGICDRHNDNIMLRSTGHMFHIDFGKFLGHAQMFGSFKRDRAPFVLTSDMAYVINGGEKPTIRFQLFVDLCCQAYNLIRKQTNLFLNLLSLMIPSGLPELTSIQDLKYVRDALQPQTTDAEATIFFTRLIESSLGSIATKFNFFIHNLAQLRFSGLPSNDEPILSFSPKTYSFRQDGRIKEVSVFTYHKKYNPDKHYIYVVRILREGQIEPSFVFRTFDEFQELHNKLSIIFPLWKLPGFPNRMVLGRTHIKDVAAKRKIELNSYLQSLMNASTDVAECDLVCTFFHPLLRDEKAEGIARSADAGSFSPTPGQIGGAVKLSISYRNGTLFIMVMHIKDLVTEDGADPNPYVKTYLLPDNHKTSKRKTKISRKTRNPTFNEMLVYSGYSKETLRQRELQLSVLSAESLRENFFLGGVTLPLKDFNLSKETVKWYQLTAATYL
Kinase-Dead PI3K-C2α (KD-V5-PI3K-C2α) (O00443, form named): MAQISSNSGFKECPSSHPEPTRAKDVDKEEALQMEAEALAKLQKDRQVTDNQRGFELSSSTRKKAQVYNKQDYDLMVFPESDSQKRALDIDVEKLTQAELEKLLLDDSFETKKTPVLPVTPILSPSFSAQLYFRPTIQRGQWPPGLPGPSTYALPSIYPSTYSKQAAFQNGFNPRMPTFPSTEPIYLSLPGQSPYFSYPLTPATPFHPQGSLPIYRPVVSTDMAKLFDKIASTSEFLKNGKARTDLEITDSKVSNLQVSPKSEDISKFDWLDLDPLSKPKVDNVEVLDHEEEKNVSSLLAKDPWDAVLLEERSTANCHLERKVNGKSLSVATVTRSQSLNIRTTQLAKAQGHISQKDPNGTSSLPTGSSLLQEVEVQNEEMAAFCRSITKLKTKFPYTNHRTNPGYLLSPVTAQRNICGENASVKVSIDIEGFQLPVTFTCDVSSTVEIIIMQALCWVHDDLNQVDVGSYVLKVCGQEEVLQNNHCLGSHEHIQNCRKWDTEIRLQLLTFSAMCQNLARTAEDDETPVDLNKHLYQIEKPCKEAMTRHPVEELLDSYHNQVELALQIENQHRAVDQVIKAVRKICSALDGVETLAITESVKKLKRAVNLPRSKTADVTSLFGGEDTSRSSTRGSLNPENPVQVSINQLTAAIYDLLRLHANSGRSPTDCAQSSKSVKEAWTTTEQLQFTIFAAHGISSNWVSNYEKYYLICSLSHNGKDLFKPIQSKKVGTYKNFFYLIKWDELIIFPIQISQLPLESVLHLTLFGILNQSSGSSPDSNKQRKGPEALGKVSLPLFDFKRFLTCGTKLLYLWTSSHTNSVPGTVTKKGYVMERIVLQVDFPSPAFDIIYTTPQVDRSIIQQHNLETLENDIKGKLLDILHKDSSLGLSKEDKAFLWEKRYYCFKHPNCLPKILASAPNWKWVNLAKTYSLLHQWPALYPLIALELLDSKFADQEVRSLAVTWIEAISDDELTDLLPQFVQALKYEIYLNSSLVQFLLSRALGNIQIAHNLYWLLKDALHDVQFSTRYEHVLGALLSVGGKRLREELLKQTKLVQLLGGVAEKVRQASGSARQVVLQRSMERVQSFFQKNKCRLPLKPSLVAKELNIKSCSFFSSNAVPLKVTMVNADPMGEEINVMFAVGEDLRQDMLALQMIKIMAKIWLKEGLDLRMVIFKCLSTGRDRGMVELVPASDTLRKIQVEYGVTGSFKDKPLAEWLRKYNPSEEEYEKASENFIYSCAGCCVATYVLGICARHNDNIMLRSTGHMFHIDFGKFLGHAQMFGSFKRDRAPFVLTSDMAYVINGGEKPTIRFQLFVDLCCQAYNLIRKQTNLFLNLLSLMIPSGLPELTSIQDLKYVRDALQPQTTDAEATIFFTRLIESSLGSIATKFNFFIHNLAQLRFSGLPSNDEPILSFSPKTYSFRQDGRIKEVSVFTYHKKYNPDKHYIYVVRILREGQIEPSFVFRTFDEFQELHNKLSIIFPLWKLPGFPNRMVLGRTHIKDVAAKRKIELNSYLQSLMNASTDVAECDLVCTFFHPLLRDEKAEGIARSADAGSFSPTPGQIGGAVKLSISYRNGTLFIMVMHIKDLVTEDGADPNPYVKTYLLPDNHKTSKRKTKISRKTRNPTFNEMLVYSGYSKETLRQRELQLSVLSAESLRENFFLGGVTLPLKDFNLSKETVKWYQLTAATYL
UniProt Q8NEB9: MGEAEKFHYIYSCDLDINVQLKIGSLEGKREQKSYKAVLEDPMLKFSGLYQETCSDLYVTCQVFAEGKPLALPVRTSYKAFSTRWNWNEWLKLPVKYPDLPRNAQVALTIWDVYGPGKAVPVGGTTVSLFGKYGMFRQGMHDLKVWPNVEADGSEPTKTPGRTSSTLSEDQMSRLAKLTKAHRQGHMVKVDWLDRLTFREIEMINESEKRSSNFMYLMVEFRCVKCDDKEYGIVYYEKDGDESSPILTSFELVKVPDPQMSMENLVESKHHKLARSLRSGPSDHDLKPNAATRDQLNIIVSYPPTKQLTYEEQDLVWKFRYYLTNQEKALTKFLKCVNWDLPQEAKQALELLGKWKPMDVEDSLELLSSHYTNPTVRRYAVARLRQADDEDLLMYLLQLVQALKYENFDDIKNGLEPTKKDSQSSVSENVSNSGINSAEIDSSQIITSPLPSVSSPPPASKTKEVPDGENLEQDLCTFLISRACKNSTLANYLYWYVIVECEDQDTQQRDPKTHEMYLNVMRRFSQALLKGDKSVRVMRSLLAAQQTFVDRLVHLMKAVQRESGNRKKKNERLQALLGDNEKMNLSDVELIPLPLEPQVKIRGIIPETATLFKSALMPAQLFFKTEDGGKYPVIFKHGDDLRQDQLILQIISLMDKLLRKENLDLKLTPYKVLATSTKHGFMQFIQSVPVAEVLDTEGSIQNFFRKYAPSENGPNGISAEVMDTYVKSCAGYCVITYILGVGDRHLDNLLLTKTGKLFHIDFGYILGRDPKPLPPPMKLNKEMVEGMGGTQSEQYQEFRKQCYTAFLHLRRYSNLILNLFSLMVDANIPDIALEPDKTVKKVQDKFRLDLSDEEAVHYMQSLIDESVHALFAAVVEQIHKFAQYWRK
UniProt Q6ZNE5: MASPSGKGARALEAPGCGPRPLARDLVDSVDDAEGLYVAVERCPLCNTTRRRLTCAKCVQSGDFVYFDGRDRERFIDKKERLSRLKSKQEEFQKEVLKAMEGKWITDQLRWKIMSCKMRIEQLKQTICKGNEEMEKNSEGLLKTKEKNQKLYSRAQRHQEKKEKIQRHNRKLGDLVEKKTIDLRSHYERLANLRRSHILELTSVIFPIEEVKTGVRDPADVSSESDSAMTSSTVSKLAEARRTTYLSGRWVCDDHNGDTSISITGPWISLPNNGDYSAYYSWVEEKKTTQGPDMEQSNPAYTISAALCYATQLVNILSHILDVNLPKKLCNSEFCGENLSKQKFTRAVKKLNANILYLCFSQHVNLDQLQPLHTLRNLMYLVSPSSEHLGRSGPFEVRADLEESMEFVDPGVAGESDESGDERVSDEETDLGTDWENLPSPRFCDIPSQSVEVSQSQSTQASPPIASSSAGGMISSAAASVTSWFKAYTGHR
UniProt Q00610: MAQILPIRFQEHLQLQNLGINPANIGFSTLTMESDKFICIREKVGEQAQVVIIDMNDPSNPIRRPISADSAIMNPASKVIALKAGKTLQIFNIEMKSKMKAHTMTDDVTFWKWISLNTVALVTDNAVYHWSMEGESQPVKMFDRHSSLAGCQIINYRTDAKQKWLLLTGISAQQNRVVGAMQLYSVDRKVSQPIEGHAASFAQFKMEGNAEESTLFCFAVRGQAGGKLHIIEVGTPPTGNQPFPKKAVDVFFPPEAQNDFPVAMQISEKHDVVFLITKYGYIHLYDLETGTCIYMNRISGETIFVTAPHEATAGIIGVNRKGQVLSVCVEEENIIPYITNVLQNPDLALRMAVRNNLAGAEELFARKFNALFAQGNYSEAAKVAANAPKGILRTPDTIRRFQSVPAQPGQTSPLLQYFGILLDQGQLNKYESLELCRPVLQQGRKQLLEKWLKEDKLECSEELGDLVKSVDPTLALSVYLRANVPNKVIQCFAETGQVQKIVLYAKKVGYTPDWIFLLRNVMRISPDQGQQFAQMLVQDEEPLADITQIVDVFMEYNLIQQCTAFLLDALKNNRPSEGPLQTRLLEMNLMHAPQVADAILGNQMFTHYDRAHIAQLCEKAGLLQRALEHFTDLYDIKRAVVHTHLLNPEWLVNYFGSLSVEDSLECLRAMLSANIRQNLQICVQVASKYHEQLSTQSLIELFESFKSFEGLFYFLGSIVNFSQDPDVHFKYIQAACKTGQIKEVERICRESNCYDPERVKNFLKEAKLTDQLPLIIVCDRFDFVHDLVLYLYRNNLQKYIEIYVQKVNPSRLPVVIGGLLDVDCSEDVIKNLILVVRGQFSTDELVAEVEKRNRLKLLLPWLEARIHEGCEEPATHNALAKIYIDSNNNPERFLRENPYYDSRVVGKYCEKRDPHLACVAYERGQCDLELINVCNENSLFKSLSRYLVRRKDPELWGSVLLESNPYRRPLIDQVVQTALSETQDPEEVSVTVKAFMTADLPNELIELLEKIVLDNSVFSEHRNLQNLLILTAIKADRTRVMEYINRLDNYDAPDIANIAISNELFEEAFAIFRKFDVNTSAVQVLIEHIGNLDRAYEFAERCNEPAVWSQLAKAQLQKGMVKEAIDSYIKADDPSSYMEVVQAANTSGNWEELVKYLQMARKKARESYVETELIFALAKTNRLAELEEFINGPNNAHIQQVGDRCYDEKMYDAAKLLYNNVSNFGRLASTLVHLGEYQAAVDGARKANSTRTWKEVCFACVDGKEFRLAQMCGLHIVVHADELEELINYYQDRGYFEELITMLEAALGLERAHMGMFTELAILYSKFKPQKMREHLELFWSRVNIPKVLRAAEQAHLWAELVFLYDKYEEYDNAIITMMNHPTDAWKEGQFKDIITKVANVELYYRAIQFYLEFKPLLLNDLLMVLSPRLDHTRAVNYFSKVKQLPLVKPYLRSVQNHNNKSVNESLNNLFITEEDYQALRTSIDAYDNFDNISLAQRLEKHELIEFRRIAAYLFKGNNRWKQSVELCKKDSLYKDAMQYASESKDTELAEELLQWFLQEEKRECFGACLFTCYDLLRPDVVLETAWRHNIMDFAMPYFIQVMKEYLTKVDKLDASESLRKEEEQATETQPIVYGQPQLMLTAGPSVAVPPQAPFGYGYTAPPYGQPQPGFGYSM

What was measured:
Test in all cases: co-IP; V5 antibody (1 μg) on Dynabead-protein G; supernatant of lysed transfected 293FT cells added overnight at 4°C; beads washed with 1x PBS, 0.1% Triton X-100; Western blot of endogenous proteins
[1] = target: V5-PI3K-C2α (phosphatidylinositol-4-phosphate 3-kinase catalytic subunit type 2 alpha) (human) (UniProt O00443)
[2] = target: Kinase-Dead PI3K-C2α (KD-V5-PI3K-C2α) (human) (UniProt O00443)
[3] = target: V5-PI3K-C3 (phosphatidylinositol 3-kinase catalytic subunit type 3) (human) (UniProt Q8NEB9)

binding [1]: binds | binding [2]: binds
Molecule: ATG14L (from UniProt Q6ZNE5 1-492)

binding [3]: binds | binding [1]: binds | binding [2]: binds
Molecule: clathrin (from UniProt Q00610 1-1675)

binding [3]: no binding
Molecule: PI3K-C2α (endogenous) (from UniProt O00443 1-1686) (enzyme)

binding [3]: binds | binding [1]: binds | binding [2]: binds
B1: ATG9A (Autophagy Related Protein 9) (protein, UniProt Q7Z3C6 1-839)
chain: MAQFDTEYQRLEASYSDSPPGEEDLLVHVAEGSKSPWHHIENLDLFFSRVYNLHQKNGFTCMLIGEIFELMQFLFVVAFTTFLVSCVDYDILFANKMVNHSLHPTEPVKVTLPDAFLPAQVCSARIQENGSLITILVIAGVFWIHRLIKFIYNICCYWEIHSFYLHALRIPMSALPYCTWQEVQARIVQTQKEHQICIHKRELTELDIYHRILRFQNYMVALVNKSLLPLRFRLPGLGEAVFFTRGLKYNFELILFWGPGSLFLNEWSLKAEYKRGGQRLELAQRLSNRILWIGIANFLLCPLILIWQILYAFFSYAEVLKREPGALGARCWSLYGRCYLRHFNELEHELQSRLNRGYKPASKYMNCFLSPLLTLLAKNGAFFAGSILAVLIALTIYDEDVLAVEHVLTTVTLLGVTVTVCRSFIPDQHMVFCPEQLLRVILAHIHYMPDHWQGNAHRSQTRDEFAQLFQYKAVFILEELLSPIVTPLILIFCLRPRALEIIDFFRNFTVEVVGVGDTCSFAQMDVRQHGHPQWLSAGQTEASVYQQAEDGKTELSLMHFAITNPGWQPPRESTAFLGFLKEQVQRDGAAASLAQGGLLPENALFTSIQSLQSESEPLSLIANVVAGSSCRGPPLPRDLQGSRHRAEVASALRSFSPLQPGQAPTGRAHSTMTGSGVDARTASSGSSVWEGQLQSLVLSEYASTEMSLHALYMHQLHKQQAQAEPERHVWHRRESDESGESAPDEGGEGARAPQSIPRSASYPCAAPRPGAPETTALHGGFQRRYGGITDPGTVPRVPSHFSRLPLGGWAEDGQSASRHPEPVPEEGSEDELPPQVHKV
